Data published in PubChem BioAssay AID463173 (ICCB-Longwood Screening Facility, Harvard Medical School, 2010).
About 1,700 (3.3%) of roughly 52,000 compounds were called active. No stated cut-off is given here; in the data, active means survival mostly below about 52% (no sharp cut-off); inactive means mostly above about 56%. The list shows a part of the results.

test system: Wild type; assay: growth inhibition of S. aureus wild type versus tarO mutant, primary screen, teichoic acid synthesis inhibitors, RN4220, OD600 (AID 463173); settings: S. aureus RN4220 wild type/DeltatarO growth, OD600, 18 h, stronger effect = lower value, screened at 18.75 µg/mL (by protocol)

Row | Structure (SMILES) | survival
1 | Cc1ccc(C(=O)NCCSc2c(C)[nH]c3ccccc23)cc1C | active: 19%
2 | CCOc1cc(C2C(C(N)=O)=C(C)Nc3ncnn32)cc(Br)c1O (stereo unspecified) | inactive: 71%
3 | Cc1ccc(-c2nn(CCC(=O)Nc3ccc(Cl)c(Cl)c3)c(=O)c3ccccc23)cc1 | inactive: 78%
4 | O=c1[nH]c2cc3c(cc2cc1CN(Cc1nnnn1CCc1ccccc1)C1CCCC1)OCCO3 | inactive: 102%
5 | COc1nc(NC23CC4CC(CC(C4)C2)C3)nc(OC)n1 | inactive: 126%
6 | Cc1ccc(CCNC(=O)c2cc3c(s2)-c2ccccc2OC3)cc1 | inactive: 95%
7 | O=C(NCC1CCCO1)NC12CC3CC(CC(C3)C1)C2 (stereo unspecified) | inactive: 107%
8 | CC1CCCC(C)N1C(=O)CSc1nnc(-c2ccccc2)o1 (stereo unspecified) | inactive: 98%
9 | CCCn1c(=N)c(C(=O)NC2CCCC2)cc2c(=O)n3cc(C)ccc3nc21 | inactive: 68%
10 | CC1CCC(NC(=O)c2ccc3c(c2)N(Cc2ccccc2F)C(=O)c2ccccc2S3)CC1 (stereo unspecified) | inactive: 84%
11 | NC(=O)CSc1nc2ccc(NC(=O)COc3ccccc3)cc2s1 | inactive: 86%
12 | Cc1nc2ccc(S(=O)(=O)NC(C(=O)NCc3ccccc3Cl)C(C)C)cc2s1 (stereo unspecified) | inactive: 85%
13 | CC1CCN(S(=O)(=O)c2ccc3c(c2)N(CC(=O)NCc2ccccc2Cl)C(=O)CS3)CC1 | inactive: 73%
14 | c1ccc(-c2cc(-c3ccccc3)c3c(n2)-c2ccccc2OC3)cc1 | inactive: 27%
15 | COc1ccc(C2C(=O)N(C3CCC(C)CC3)CC(=O)N2Cc2ccc(C)cc2)cc1OC (stereo unspecified) | inactive: 82%
16 | CSc1ncc(Cl)c(C(=O)NCc2ccc(C)cc2)n1 | inactive: 88%
17 | COC(=O)C(=NNc1cccc(Cl)c1)C(=O)OC | inactive: 110%
18 | O=S(=O)(Nc1ccc(F)c(C(F)(F)F)c1)c1ccc(N2CCCCS2(=O)=O)cc1 | inactive: 146%
19 | O=C(Nc1cccc(C(F)(F)F)c1)C1CCCN(S(=O)(=O)c2cccc3nsnc23)C1 (stereo unspecified) | inactive: 85%
20 | Cc1ccc2c(CC(=O)N3CCN(c4cccc(Cl)c4)CC3)coc2c1 | inactive: 82%
21 | CCCCNc1ccc(-c2nc(-c3ccccc3)no2)cc1[N+](=O)[O-] | inactive: 83%
22 | COc1ccc(OC)c(CNS(=O)(=O)c2c(C(=O)N3CCC(C)CC3)c(C)n(C)c2C)c1 | inactive: 47%
23 | Cc1cc(C)cc(NC(=O)Cn2nnc(C(=O)NCCc3ccccc3)c2N)c1 | inactive: 93%

Row | Structure (SMILES) | survival
24 | Cc1ccc(C#N)c(=O)[nH]1 | inactive: 127%
25 | CN(C)c1cc[n+](CC(=O)N2CCCc3ccccc32)cc1 | inactive: 108%
26 | CCOc1ccc(C(=O)NCCc2sc(-c3ccc(C)cc3)nc2C)cc1 | active: -3%
27 | Cc1ccc(CCNC(=O)c2ccc(CS(=O)(=O)c3ccc(Br)cc3)o2)cc1 | inactive: 131%
28 | CCOc1ccccc1NC(=O)CSc1c(C)cnc2c1c(=O)n(C)c(=O)n2C | inactive: 67%
29 | COc1cc(Nc2nc(SCc3ccccc3F)nc3ccccc23)cc(OC)c1 | inactive: 128%
30 | Cc1ccc(C(c2nnnn2C2CCCC2)N2CCc3ccccc32)cc1 (stereo unspecified) | inactive: 118%
31 | COc1ccc(CCNC(=O)c2cnc3sc(N4CCCCCC4)nn3c2=O)cc1OC | inactive: 72%
32 | CCOCCCNC(=O)C(c1ccc(OC)cc1)N(Cc1cccs1)C(=O)c1ccccc1O (stereo unspecified) | inactive: 65%
33 | CC1=C(C(=O)Nc2c(C)cc(C)cc2C)C2(CCN(C(C)C)CC2)OC1=O | inactive: 118%
34 | CC1=C(C(=O)Nc2cccc(C)c2C)C2(CCCCC2)OC1=O | inactive: 74%
35 | CC1(C)NC(=O)N(CC(O)CNC23CC4CC(CC(C4)C2)C3)C1=O (stereo unspecified) | inactive: 108%
36 | CC(C)NC(=O)CSc1nc2ccccc2nc1N1CCCCC1 | active: -28%
37 | COc1ccccc1N1CCN(CCCNC(=O)c2cnn(-c3ccccc3Cl)c2C2CCN(C(=O)OC(C)(C)C)CC2)CC1 | inactive: 78%
38 | Cc1ccc(Sc2ccc(N3CCCC(C(=O)Nc4ccc(Cl)cc4)C3)nn2)cc1 (stereo unspecified) | inactive: 71%
39 | CCOc1ccc(C(=O)NC2CCN(C(=O)NCc3ccccc3)CC2)cc1 | inactive: 109%
40 | Cc1ccc(N2CC(NC(=O)Cc3cccs3)CC2=O)cc1 (stereo unspecified) | active: 0%
41 | COc1cc(OC)c(NC(=O)Nc2nnc(N(C)C3CCCCC3)s2)cc1Cl | inactive: 14%
42 | CCOc1cccc2sc(N(Cc3cccnc3)C(=O)c3ccco3)nc12 | inactive: 85%
43 | COc1ccc(C(c2c(C)n(C)n(-c3ccccc3)c2=O)c2c(C)n(C)n(-c3ccccc3)c2=O)cc1O | inactive: 93%
44 | COc1ccc(-c2cc3c(=O)n(CC(=O)Nc4ccccc4C(F)(F)F)ccn3n2)cc1OC | inactive: 91%
45 | CCCc1nc(N)c(C#N)c(-c2ccc(F)cc2)c1CC | inactive: 114%
46 | O=C(O)CCc1ccco1 | inactive: 107%

Row | Structure (SMILES) | survival
47 | COc1ccc(Cn2nnnc2CN(Cc2cccs2)Cc2cc3ccc(OC)cc3[nH]c2=O)cc1 | inactive: 111%
48 | CC(=O)c1ccc(NC(=O)CN(C)S(=O)(=O)c2cc3c(cc2C)NC(=O)CO3)cc1 | inactive: 82%
49 | CC1CCN(CC(=O)N2CCCc3c2c(=O)oc2ccc(OCc4ccccc4)cc32)CC1 | inactive: 86%
50 | Cc1c(C(=O)Nc2ccc(Br)cc2F)oc2ccc(S(=O)(=O)N3CCCCC3)cc12 | inactive: 68%
51 | CC1(C(=O)Nc2cccc(C(F)(F)F)c2)Cc2ccccc2C(=O)O1 (stereo unspecified) | inactive: 104%
52 | O=C(CN1C(=O)C2CCCCN2c2ccc(C(=O)N3CCCC3)cc21)NCc1ccc(F)cc1 (stereo unspecified) | inactive: 77%
53 | Cc1nc(N2CCOCC2)c2c(C(=O)N3CCN(c4cc(Cl)ccc4C)CC3)c(C)oc2n1 | inactive: 64%
54 | COc1ccc(CNC(=O)C2CCCCN2S(=O)(=O)c2ccc(F)cc2)cc1 (stereo unspecified) | inactive: 87%
55 | CCOc1c(CC2C(=O)Nc3ccc(Br)cc32)cccc1OC (stereo unspecified) | inactive: 99%
56 | CCCNC(=O)CN1C(=O)COc2ccc(S(=O)(=O)N3CCCC3)cc21 | inactive: 89%
57 | CCCC(=O)Nc1nc2ccc(S(C)(=O)=O)cc2s1 | inactive: 109%
58 | CCN1CCC(N(Cc2ccc(F)cc2)C(=O)Nc2cc(C)ccc2C)CC1 | inactive: 71%
59 | CCOc1ccccc1CNc1ncnc2onc(-c3ccc(F)cc3)c12 | inactive: 81%
60 | CC1CCCCN1C(=O)CSc1nc2ccccc2nc1Cc1ccccc1 (stereo unspecified) | inactive: 71%
61 | COc1ccc(-n2cc(C(=O)NCCc3ccc(C)cc3)c3ccccc3c2=O)cc1 | inactive: 82%
62 | NC(=O)C1CCCN(C(=O)Nc2c[nH]c3ccccc3c2=O)C1 (stereo unspecified) | inactive: 113%
63 | COC(=O)c1ccc(C2CC(=O)Nc3c2c(C)nn3-c2nc(C)cc(C)n2)cc1 (stereo unspecified) | inactive: 84%
64 | COc1ccc(CNC(=O)c2ccc3c(c2)N=C(C)c2c(C)ccc(C)c2S3)cc1 | inactive: 91%
65 | Cc1cc(C)cc(NC(=O)CC(C)n2nc(C)cc2C)c1 (stereo unspecified) | inactive: 83%
66 | O=C(Cn1ccc2cc(S(=O)(=O)N3CCCC3)ccc21)NCc1ccc(Cl)cc1 | inactive: 72%
67 | CCn1c(SC)nc2c([nH]c3ccccc32)c1=O | inactive: 80%
68 | COc1cc(NC(=O)Cn2c(=O)n(Cc3ccccc3)c(=O)c3oc4ccccc4c32)cc(OC)c1 | inactive: 72%
69 | CCOC(=O)c1c(S(=O)(=O)N2CCC(C(=O)Nc3ccc(C)cn3)CC2)c(C)n(C)c1C | inactive: 70%

Row | Structure (SMILES) | survival
70 | CCOC(=O)c1cc2c(ccn2C)n1CC(=O)NC(c1ccccc1)c1ccccc1 | inactive: 108%
71 | O=C(Nc1ccc(F)cc1)C1CCN(c2nc3ccccc3nc2C(F)(F)F)CC1 | inactive: 128%
72 | COc1ccc(-c2noc(CC(=O)N(C)c3ccccc3F)n2)cc1 | inactive: 84%
73 | Cc1cc(-c2ccc(S(=O)(=O)Nc3ccccc3C)cc2)on1 | inactive: 69%
74 | COc1ccc(NC(=O)C2=C(C)Nc3nc(SCc4ccc(C)cc4C)nn3C2c2cccc(OC)c2OC)cc1 (stereo unspecified) | inactive: 77%
75 | Cc1cccc(NC(=O)c2ccccc2)n1 | inactive: 107%
76 | O=C(O)C1C2C=CC(O2)C1C(=O)Nc1ccccc1 (stereo unspecified) | inactive: 99%
77 | COc1cc(-c2ccno2)ccc1S(=O)(=O)N1CCN(c2cccc(Cl)c2)CC1 | active: -3%
78 | CCOc1ccc(CNC(=O)Cn2nc(C)c3nn(-c4ccc(Cl)cc4)c(C)c3c2=O)cc1 | inactive: 128%
79 | Cc1nc(N=C(N)N)nc2cc3c(cc12)OCO3 | inactive: 92%
80 | Cc1[nH]c(=O)[nH]c(=O)c1S(=O)(=O)Nc1cccc(Cl)c1C | inactive: 65%
81 | Cc1ccc(CNC(=O)c2oc3ccc(S(=O)(=O)N4CCCC(C)C4)cc3c2C)cc1 (stereo unspecified) | inactive: 66%
82 | Cc1oc2ncnc(N3CCCCC3)c2c1C(=O)NCC1CCN(Cc2ccccc2F)CC1 | inactive: 76%
83 | COc1ccccc1NC(=O)c1sc2nc(-c3cc4cc(Cl)ccc4oc3=O)[nH]c(=O)c2c1C | inactive: 83%
84 | COc1ccc(OC)c(NC(=O)Cn2nc3c(cc2=O)CCCC3)c1 | inactive: 83%
85 | COC(=O)Nc1c(-c2ccccc2)nc2ccc(C)cn12 | inactive: 105%
86 | CCc1ccc(NC(=O)CC2C(=O)N(c3cccc(C)c3)C(=O)N2Cc2cccc(OC)c2)cc1 (stereo unspecified) | inactive: 79%
87 | COc1ccc(CCNS(=O)(=O)c2ccc3c(c2)c(=O)n(C)c(=O)n3C)cc1OC | inactive: 80%
88 | CC1(C(=O)NN)NC2(CCCCC2)Cc2ccccc21 (stereo unspecified) | inactive: 108%
89 | Cc1ccc(NC(=O)CCCc2nnc3n(C)c(=O)c4sccc4n23)cc1C | inactive: 105%
90 | CCc1nn(CC(=O)NCc2ccco2)c(=O)c2cc3cc(F)ccc3n12 | inactive: 124%
91 | Cc1ccc(NC(=O)c2nc(S(C)(=O)=O)ncc2N(Cc2cccc(F)c2)Cc2ccco2)cc1C | inactive: 85%
